We go through 94 molecules from PubChem BioAssay AID493208 (National Center for Advancing Translational Sciences (NCATS), 2011).

About 340 (0.77%) of roughly 44,000 compounds were called active. Another 5% or so got no clear call; they are omitted. Calls follow the shape of the dose curve; as a rule, active = well fitted inhibition curve with a large enough effect; inconclusive = small, poorly fitted or top-dose-only effect; inactive = flat fitted curve, though single readings scatter. This is one part of the list.
Potency is read from the fitted curve at half-maximal effect.

This experiment in a line: Acumen qHTS Assay for Inhibitors of the mTORC1 Signaling Pathway in MEF (Tsc2-/-, p53-/-) Cells: Sytravon. Also: nearly all actives have a fitted effect of over 50% in size.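 As to activity change, negative = inhibition: plate controls were DMSO for no effect and rapamycin for full effect.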 The note with it: phospho-rpS6 immunofluorescence/PI, 24 h; series mostly up to 38.3 µM; activity change, negative = inhibition: at the top concentration. Summed up: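 Compounds act on Tsc2-/-, p53-/- fibroblasts carrying an empty vector for 24 h before fixation and dual staining for phospho-S6 and DNA (propidium iodide). Values are percentages of cells above a rapamycin-defined pS6/PI threshold.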
(In general: Quantitative high-throughput screening tests each substance at several concentrations.)
As for `Cc1nn(-c2nc(-c3ccccc3)cc(C(F)(F)F)n2)c(C)c1Cl`, the “activity change, negative = inhibition” value is inactive: 0.0123%.
For the molecule `CCc1nn(C(CC)C(=O)NCc2ccc(OC)c(OC)c2)c(=O)c2cc3oc(C)cc3n12` (centres undefined), the “activity change, negative = inhibition” value is inactive: -1.49%.
On the same count and under the same terms, then `CCCCNC(=O)c1cccc(NC(=O)c2nsc3ccccc23)c1`, with inactive: 7.36%.
`COc1ccc(S(=O)(=O)N2CCC(Oc3ccc(-n4cnnn4)cc3)CC2)cc1`: the “activity change, negative = inhibition” value was inactive: -2.1%.
Still for that read-out and setting: then `COc1cccc(OC)c1C(=O)NCCc1sc(-c2cccc(F)c2)nc1C`, with inactive: 8.82%; and `CCOc1ccc2c(c1)c(=O)c(C(=O)c1ccc3c(c1)OCO3)cn2Cc1ccc(F)cc1`, with inactive: 1.01%.
On the same count and under the same terms, the result for `CCc1ccc(C2C(C(=O)Nc3ccccc3OC)=C(C)Nc3c(C(=O)Nc4ccc(C)cc4)cnn32)cc1` (centres undefined) reads inactive: 3.58%.
Consider `CC(=O)Nc1ccc(NC(=O)c2nc(S(=O)(=O)Cc3ccc(F)cc3)ncc2Cl)cc1`, for which the Potency is active: 5.21 µM.
For `COc1cccc(CNC(=O)c2cnc3c(-c4ccc(F)cc4)c(C)nn3c2C)c1`, the “activity change, negative = inhibition” value was inactive: 1.78%.
Still for that read-out and setting: then `CCN(C(=O)c1cn(-c2cccc(OC)c2)c(=O)c2ccccc12)c1ccccc1C`, with inactive: 8.71%; and `COc1ccc(C(=O)Nc2ccccc2-c2nc3ccccc3s2)cc1OC`, with inactive: -0.612%; and `Cc1ccc(C)c(NC(=O)CSc2nccn2-c2cccc(C)c2C)c1`, with inactive: -1.86%.
On the same count and under the same terms, then `Cc1ccc(-n2nc(C)c(C(=O)NCCCN3CCN(c4ccccc4F)CC3)c2-n2cccc2)cc1`, with inactive: -23%; and `CCOC(=O)c1cnc2c(C)cc(C)cc2c1Nc1ccc(N2CCOCC2)cc1`, with inactive: -1.54%.
The same measure, in the same setting: the result for `CCCOc1ccccc1C(=O)Nc1nc2c(s1)CCCC2` reads inactive: -1.63%.
For the molecule `CN(Cc1ccccc1)C(=O)c1ccc2c(c1)N(Cc1ccc(Cl)cc1)C(=O)c1ccccc1S2=O` (centres undefined), the “activity change, negative = inhibition” value is inactive: -7.99%.
Still for that read-out and setting: then `Cc1oc(-c2ccc(Cl)cc2)nc1CN1CCCC(C(=O)NCc2ccc(Cl)cc2)C1` (centres undefined), with inactive: -8.42%.
For the molecule `Cc1nnc(N2CCC(C(=O)NCc3cccc(Cl)c3)CC2)c2nn(-c3ccccc3)c(C)c12`, the “activity change, negative = inhibition” value is inactive: -4.45%.
Same read-out and setting: then `COc1cccc(NS(=O)(=O)c2ccc3[nH]cc(C(=O)N(C)Cc4ccco4)c(=O)c3c2)c1`, with inactive: 1.26%.
On the same count and under the same terms, then `CC(C)c1ccc(NC(=O)CSC2=Nc3ccccc3C3=NC(CC(=O)NCc4ccco4)C(=O)N23)cc1` (centres undefined), with inactive: 2.33%.
Still for that read-out and setting: the result for `COc1ccc(NC(=O)c2ccc3c(=O)n4nc(Nc5ccccc5C)sc4nc3c2)cc1` reads inactive: -3.49%; that for `O=c1c2ccccc2n2c(-c3cccc(F)c3)nnc2n1Cc1ccccc1`, inactive: 7.44%.
In the case of `Cn1c(=O)c2c(c3ccccc31)OC(=O)CC2c1ccccc1` (centres undefined), the “activity change, negative = inhibition” value is inactive: 0.789%.
The same measure, in the same setting: then `CCOC(=O)N1CCN(C(=O)c2cnn(-c3cccc(C)c3)c2-n2cccc2)CC1`, with inactive: -4.33%; and `Cc1cccc(N2CCN(C(=O)c3c4c(nc5ccccc35)C(=O)N(C3CCCCC3)C4)CC2)c1C`, with inactive: -10.4%; and `CN(C)c1ccc(-c2nc3ccccn3c2Nc2ccc3c(c2)OCCO3)cc1`, with inactive: -0.367%.
Same read-out and setting: the result for `COc1ccc(OC)c(NC(=O)c2cc3c(=O)n4cccc(C)c4nc3n2C)c1` reads inactive: 6.63%; that for `Cc1ccc(N(C)C(=O)c2noc3c2CCCCC3)cc1C`, inactive: 1.21%.
On the same count and under the same terms, the result for `Cc1ccc(CC(=O)NCc2nc(-c3cccc(C)c3)no2)cc1` reads inactive: 4.28%; that for `Cc1cccc(C)c1OCc1cc(=O)n2ccsc2n1`, inactive: -8.92%; that for `COc1cccc(NC(=O)CSc2nnc(NC(=O)NC3CCCCC3)s2)c1`, inactive: -4.13%.
For the molecule `COc1cc(OC)c(NC(=O)C(C)n2nc(-c3ccc(C)c(C)c3)ccc2=O)cc1Cl` (centres undefined), the “activity change, negative = inhibition” value was inactive: 0%.
The same measure, in the same setting: the result for `Cc1ccc(NC(=O)N2CCc3c([nH]c4ccccc34)C2c2ccccc2F)c(Cl)c1` (centres undefined) reads inactive: -13.4%; that for `O=C(Cn1c(=O)c2sccc2n(CC(=O)Nc2ccc(Cl)cc2Cl)c1=O)NCCc1ccccc1`, inactive: 5.14%; that for `COc1cccc(C(=O)c2cn(CC(=O)Nc3cccc(Cl)c3C)c3nc(C)ccc3c2=O)c1`, inactive: -4.73%.
With `CSc1ncc(C(=O)NCc2cccc(Br)c2)c(-c2ccccc2)n1`, the “activity change, negative = inhibition” value was inactive: -12.8%.
On the same count and under the same terms, then `COCCN1C(=O)c2oc3ccc(C)cc3c(=O)c2C1c1ccc(C(=O)OC)cc1` (centres undefined), with inactive: -2%.
For `COC(=O)c1c(NC(=O)CCCOc2ccccc2C)sc2c1CCC2`, the “activity change, negative = inhibition” value was inactive: 7.44%.
For the molecule `COc1ccc(CNS(=O)(=O)c2ccc3c(c2)C(C)(C)C(=O)N3C)cc1OC`, the “activity change, negative = inhibition” value was inactive: 9.27%.
Same read-out and setting: the result for `O=C(NCc1ccccc1F)C(=O)NCC(c1ccco1)S(=O)(=O)c1ccccc1` (centres undefined) reads inactive: -2.49%.
The same measure, in the same setting: then `Cc1ccc(C)c(NS(=O)(=O)c2ccc3c(c2)CCCN3C(=O)C2CCC2)c1`, with inactive: -2.45%; and `Cc1ccc(C(C)C)c(OCC(=O)Nc2ccc(-c3nc4ncccc4o3)cc2C)c1`, with inactive: -9.16%.
The same measure, in the same setting: then `COc1ccc(C(C(=O)NCc2ccccc2)N(C(=O)Cn2nnc3ccccc32)c2ccc(OC)cc2)cc1` (centres undefined), with inactive: 0.309%; and `O=C1CC(=O)Nc2cc(S(=O)(=O)Nc3cccc(Br)c3)ccc2N1`, with inactive: 1.16%; and `COC(=O)c1cc2sc(Cl)cc2n1Cc1nc(-c2ccccc2F)oc1C`, with inactive: -7.23%.
Turning to `Cc1ccc(CCNC(=O)c2ccc(CNS(=O)(=O)c3ccc(F)cc3)cc2)cc1`, the “activity change, negative = inhibition” value was inactive: -7.19%.
Same read-out and setting: the result for `CC(=O)N1CCc2c(sc(NC(=O)CSc3ccc(C)cc3)c2-c2nc3ccccc3s2)C1` reads inactive: 1.72%.
On the same count and under the same terms, then `CCOC(=O)C1=C(CS(=O)(=O)c2ccc(F)c(C)c2)NC(=O)NC1c1ccc(F)c(F)c1` (centres undefined), with inactive: -14.3%.
For the molecule `Cc1c(C(=O)Nc2ccccc2Cl)oc2ccc(S(=O)(=O)N3CCCCCC3)cc12`, the “activity change, negative = inhibition” value is inactive: 5.13%.
On to `Cc1cccc(N2CCN(C(=O)c3cccc(-n4c(C)nc5cccnc54)c3)CC2C)c1` (centres undefined), for which the “activity change, negative = inhibition” value was inactive: -0.283%.
Still for that read-out and setting: then `Cc1cc(C)cc(NC(=O)Nc2c[nH]c(=O)[nH]c2=O)c1`, with inactive: -3.25%.
Still for that read-out and setting: the result for `Cc1cc(C)c2c(n1)SCC(=O)N2CC(=O)Nc1c(C)cccc1C` reads inactive: -5.74%; that for `COc1ccc(NS(=O)(=O)c2cc3c4c(c2)CC(=O)N4CCC3)cc1Cl`, inactive: -2.38%; that for `O=C(NC1(C(F)(F)F)N=C(c2ccccc2)N(C2CCCCC2)C1=O)c1ccccc1F` (centres undefined), inactive: -11.4%.
Still for that read-out and setting: then `COc1ccc(-c2noc(CSc3nnc(-c4ccncc4)n3-c3cccc(C)c3)n2)cc1OC`, with inactive: 1.37%; and `Cc1ccc(-c2cc(-c3coc4ccccc4c3=O)c3c(n2)-c2cc(Cl)ccc2OC3)cc1`, with inactive: -1.7%; and `CC(=O)Nc1ccc(-c2nnc3n(CC(C)C)c(=O)c4ccccc4n23)cc1`, with inactive: -18.2%.
As to `Cc1cc(C)cc(NC(=O)NCC2CCN(Cc3cc(C)ccc3C)CC2)c1`, the “activity change, negative = inhibition” value is inactive: -1.89%.
Same read-out and setting: then `COc1ccccc1NC(=O)Cn1c(SCC(=O)NCc2ccccc2)nc2ccccc21`, with inactive: 0.934%; and `COc1ccc(CCC(=O)NCCc2csc(-c3cccc(F)c3)n2)cc1`, with inactive: 0%; and `CCc1ccc(OCC2c3cc(OC)c(OC)cc3CCN2C(=O)Cc2ccc(OC)c(OC)c2)cc1` (centres undefined), with inactive: 8.53%.
Regarding `COc1cc2c(cc1NC(=O)C(C)Oc1ccc(Cl)cc1Cl)oc1ccccc12` (centres undefined), the “activity change, negative = inhibition” value was inactive: -2.8%.
Still for that read-out and setting: then `COc1ccc(NC(=O)c2oc3ccc4c(c3c2C)C(=O)CC(C)(C)O4)cc1OC`, with inactive: 1.04%; and `COc1ccc(NC(=O)CCCN2C(=O)C(c3ccccc3)Oc3cccnc32)cc1OC` (centres undefined), with inactive: -7.26%; and `COc1cc(-c2nnc(SCC(=O)N(C)C3CCCCC3)o2)cc(OC)c1OC`, with inactive: 1.35%.
On the same count and under the same terms, then `Cc1ccc(CCNC(=O)CCCn2nc(C)c3c(C)n(-c4ccc(C)cc4)nc3c2=O)cc1`, with inactive: -3%; and `Cc1cc(N2CCN(C)CC2)nc2ccc(NC(=O)Nc3ccccc3Cl)cc12`, with inactive: -7.97%.
Turning to `Cc1ccc(OCC(=O)OCc2cc(=O)n3nc(C4CCCCC4)sc3n2)cc1`, the “activity change, negative = inhibition” value is inactive: -5%.
Same read-out and setting: then `CCN(c1ncnc2c1c(-c1ccccc1)cn2-c1ccccc1)C1CCCCC1`, with inactive: 11%; and `CCOc1ccccc1NS(=O)(=O)c1c(C(=O)OC)sc2cccc(F)c12`, with inactive: -11.1%; and `COc1ccc(OC)c(CCNC(=O)c2sc3nc4n(c(=O)c3c2C)CCCC4)c1`, with inactive: 3.28%.
On the same count and under the same terms, then `COc1ccc(N(C(=O)c2ccccc2C)S(=O)(=O)c2ccc3c(c2)n(C)c(=O)n3C)cc1`, with inactive: 0.609%; and `CSCCC(NC(=O)C1CCCCC1)C(=O)Nc1ccc(F)c(Cl)c1` (centres undefined), with inactive: 4.26%.
The same measure, in the same setting: then `CCNc1c(NC(=O)c2ccccc2OCC)c(=O)oc2ccccc12`, with inactive: -5.87%; and `Cc1ccc(N2C(=O)[C@@H]3CSC(c4ccc(C(F)(F)F)cc4)N3C2=O)cc1` (some centres undefined), with inactive: -8.46%.
Regarding `COc1cccc(-c2nc(SC(C(C)=O)C(=O)N(C)C)c3c(=O)n(C)c(=O)n(C)c3n2)c1` (centres undefined), the “activity change, negative = inhibition” value is inactive: 1.12%.
On the same count and under the same terms, then `CCOC(=O)C1=C(CNCc2ccccc2)NC(=O)NC1c1ccc(C)cc1` (centres undefined), with inactive: -0.0779%; and `COc1ccc(-n2c(=O)c3c(C)c(C)sc3n(Cc3ccc(F)cc3)c2=O)c(OC)c1`, with inactive: 2.33%; and `Cc1ccc(S(=O)(=O)N2CCCc3cc(NC(=O)c4ccc(C(F)(F)F)cc4)ccc32)cc1`, with inactive: 0%.
Same read-out and setting: the result for `O=C(Nc1ccc(F)cc1)c1cccc(N2CCCS2(=O)=O)c1` reads inactive: -0.243%.
The same measure, in the same setting: then `CCOc1ccccc1NC(=O)C1CCN(S(=O)(=O)Cc2ccccc2)CC1`, with inactive: -19%.
Take `Cc1cc(=O)n(C(C)C(=O)NCc2ccccc2Cl)c2c1c(C)nn2-c1ccccc1` (centres undefined): the “activity change, negative = inhibition” value is inactive: 1.21%.
The same measure, in the same setting: the result for `COc1cc(OC)c(C2C=C(c3ccc(C)cc3)Nc3c(C(=O)Nc4ccccc4)cnn32)cc1OC` (centres undefined) reads inactive: -13.6%; that for `Cc1cc(O)c(C(c2ccccc2Cl)N2CCCCC2)c(=O)n1Cc1ccco1` (centres undefined), inactive: 4.36%; that for `Cc1ccc(C(C)C)c(OCC(=O)Nc2c(C(=O)c3ccc(F)cc3)oc3ccccc23)c1`, inactive: 9.35%.
The same measure, in the same setting: then `Cc1c2cnn(CC(=O)N3CCCCC3)c(=O)c2c(C)n1Cc1ccc(Cl)cc1`, with inactive: -7.62%; and `Cc1ccc(NC(=O)c2ccc3c(=O)n4nc(Nc5ccccc5C)sc4nc3c2)cc1C`, with inactive: -0.712%.
In the case of `CCc1ccc(C2N3CC4(C)CN2CC(c2ccccc2)(C3)C4=O)cc1` (centres undefined), the “activity change, negative = inhibition” value is inactive: 4.14%.
Same read-out and setting: then `CCn1cc(C(=O)NCc2ccccc2)c(=O)c2cc(S(=O)(=O)N3CCOCC3)ccc21`, with inactive: 0.156%; and `COC(=O)C1=C(C)NC(=O)NC1c1cn(-c2ccccc2)nc1-c1ccc(OC)c(Cl)c1` (centres undefined), with inactive: -13.8%.
Still for that read-out and setting: the result for `Cc1ccc(/C=C/c2onc(C)c2S(=O)(=O)N2CCC(C(=O)NCc3ccc(Cl)cc3)CC2)cc1` reads inactive: -10.2%; that for `CC(NC(=O)c1ccc(N2Cc3ccccc3Oc3ncccc32)s1)c1ccccc1` (centres undefined), inactive: 3.72%; that for `CCOC(=O)C(C)NC(=O)c1cc2c(=O)[nH]c3ccc(C)cc3c2s1` (centres undefined), inactive: -5.49%.
Turning to `O=C(NCCc1ccc(Cl)cc1)c1ccc2c(c1)N(Cc1ccc(F)cc1Cl)C(=O)CS2`, the “activity change, negative = inhibition” value is inactive: -73.4%.
